Measurements as given in PubChem BioAssay (NCATS).
Inconclusive results, whose numbers are uncertain, are shown with a selection of clear calls. Potencies of inconclusive entries are left out as doubtful fits. Active and inactive are the calls of the source. Calls follow the shape of the dose curve; as a rule, active = well fitted inhibition curve with a large enough effect; inconclusive = small, poorly fitted or top-dose-only effect; inactive = flat fitted curve, though single readings scatter. Residues, ends and D or L forms follow the SMILES beside them.

The compounds below were run against Aldehyde dehydrogenase, mitochondrial (Homo sapiens) (UniProt P05091) (assay: qHTS for Inhibitors of the Aldehyde Dehydrogenase Family (ALDH2) Primary screen (AID 2061308; also: nearly all actives have a fitted effect of over 55% in size;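 as to activity change, negative = inhibition: plate controls were vehicle for no effect and reference inhibitor for full effect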)). Conditions: ALDH2 enzyme inhibition qHTS, 1536-well; series mostly up to 56 µM; activity change, negative = inhibition: at the top concentration.
Potency is read from the fitted curve at half-maximal effect; tags tell the direction and shape of the fitted curve.

| SMILES | Potency | activity change, negative = inhibition |
| --- | --- | --- |
| N#Cc1c(-c2cccs2)no[n+]1[O-] | inconclusive [inhibitor, partial curve, poor fit] |  |
| CCc1c(Cl)c(O)c(Cl)c(O)c1C(=O)O[C@H]1[C@H](O)[C@H](OC)[C@H](OC/C2=C\C=C\C[C@H](O)/C(C)=C\[C@H](CC)[C@@H](O[C@@H]3OC(C)(C)[C@@H](OC(=O)C(C)C)[C@H](O)[C@@H]3O)/C(C)=C/C(C)=C/C[C@@H]([C@@H](C)O)OC2=O)O[C@@H]1C | inconclusive [inhibitor, partial curve] |  |
| Fc1cccc(CNc2nc(-c3ccccc3C(F)(F)F)nc3ccccc23)c1 | inconclusive [inhibitor, single point] |  |
| O=C(OC[C@H]1O[C@H](O[C@]2(CO)O[C@H](CO)[C@@H](O)[C@@H]2O)[C@H](O)[C@@H](O)[C@@H]1O)c1ccc(O)cc1 |  | inactive: 1.6% [at 28 µM] |
| CC(/C=C/C=C(\C)C(=O)O[C@@H]1O[C@H](CO[C@@H]2O[C@H](CO)[C@@H](O)[C@H](O)[C@H]2O)[C@@H](O)[C@H](O)[C@H]1O)=C\C=C\C=C(C)\C=C\C=C(/C)C(=O)O[C@@H]1C[C@](O)(C(=O)O)C[C@@H](O)[C@H]1OC(=O)/C=C/c1ccc(O)c(O)c1 | inconclusive [inhibitor, single point] |  |
| CC(=O)OC1/C(C)=C/C(=O)C(OC(C)=O)C(C)(C)/C=C/C(C)C(=O)C2(OC(C)=O)CC(C)C(OC(=O)c3ccccc3)C12 (stereo not given) | inconclusive [inhibitor, single point] |  |
| CC1(C)C2CC[C@]3(C)C(C(=O)C=C4[C@H]5C[C@@](C)(C(=O)O)CC[C@]5(C)CC[C@]43C)[C@@]2(C)CC[C@@H]1O (stereo not given in full) |  | inactive: 6.67% [at 28 µM] |
| CC(C)C1NC(=O)CNC(=O)C2CCCN2C(=O)C(Cc2c[nH]c3ccccc23)NC(=O)CNC(=O)C(Cc2ccc(O)cc2)NC(=O)CNC1=O (stereo not given) (cyclo(GVGYGWP); configuration not given here) |  | inactive: -3.57% [at 16.9 µM] |
| N#Cc1cc(NC(=O)Nc2nnc(-c3ccncc3)s2)ccc1-c1ccc[nH]1 |  | inactive: 8.45% |
| CC1=COC(OC2OC(CO)C(O)C(O)C2O)C2C(CO)CC(OC(=O)/C=C/c3ccc(O)cc3)C12 (stereo not given) |  | inactive: 2.99% [at 28 µM] |
| CCCCOc1ccc(-c2cncc(C(=O)NCc3cccnc3N3CCOCC3)c2)cc1Cl |  | inactive: -2.38% |
| Cc1ccsc1CN(C)c1ncnc2ccc(-c3ccc4c(c3)OCO4)cc12 | inconclusive [inhibitor, partial curve, poor fit] |  |
| COc1ccc(-c2ccc3ncnc(N(C)Cc4csc(C)n4)c3c2)cc1OC |  | inactive: 5.17% |
| COc1cc(O)c(C(CC(=O)N2CCC(c3ccccc3)CC2)c2ccc(OC)c(OC)c2)c(OC)c1 (stereo not given) |  | inactive: -0.74% [at 114 µM] |
| Cc1cc(C)nc(NC(=S)N2CCN(c3cccc(OC(F)(F)F)c3)CC2)c1 | inconclusive [inhibitor, partial curve, poor fit] |  |
| O=[S+]([O-])(Nc1ccc2ccccc2c1)c1ccc(NCc2ccc(Cl)cc2O)cc1 | inconclusive [inhibitor, partial curve] |  |
| Fc1cccc(CNc2ncnc3ccc(-c4cccnc4)cc23)c1 |  | inactive: 0.67% |
| COc1ccccc1NS(=O)(=O)c1cc(NC(=O)c2ccccc2)ccc1N1CCCC1 | inconclusive [inhibitor, partial curve, poor fit] |  |
| O=C(Nc1ccc(-c2nc3ccccc3[nH]2)cc1)c1ccc(-c2ccccc2)cc1 | inconclusive [inhibitor, partial curve, poor fit] |  |
| O=C(NC1CCCc2c1cnn2-c1ccc(F)cc1F)c1ccn[nH]1 (stereo not given) |  | inactive: 5.89% |

| SMILES | Potency | activity change, negative = inhibition |
| --- | --- | --- |
| CCOc1ccc(C(=O)Nc2ccc(-c3nn[nH]n3)cc2)cc1[N+](=O)[O-] |  | inactive: 3.56% |
| CC(C)[C@@H](c1ccc(C(F)(F)F)cc1CN(Cc1cc(C(F)(F)F)cc(C(F)(F)F)c1)c1nnn(C)n1)N1CCC(C(=O)O)CC1 |  | inactive: 3.78% |
| FC(F)(F)c1ccccc1-c1nc(NCc2ccc(-c3ccc4c(c3)OCCO4)cc2)c2ccccc2n1 | inconclusive [inhibitor, full curve, poor fit] |  |
| COc1ccc(S(=O)(=O)Nc2nc(-c3cccc([N+](=O)[O-])c3)cs2)cc1OC | inconclusive [inhibitor, partial curve, poor fit] |  |
| C=C1C[C@]23C[C@H]1CC[C@H]2[C@]1(C)CC[C@H](O)[C@@](C)(C(=O)O)[C@H]1[C@@H]3C(=O)O |  | inactive: -13.5% |
| Cn1c2cc([N+](=O)[O-])sc2c2cnn(Cc3ccccc3F)c(=O)c21 | inconclusive [inhibitor, partial curve, poor fit] |  |
| COc1ccc(C2(O)c3ccccc3NC(=O)C2O)cc1 (stereo not given) |  | inactive: 3.29% |
| COc1ccc(-c2ccc(Nc3nc(-c4ccncc4)nc4ccccc34)cc2F)cc1F |  | inactive: 8.4% |
| CC(=O)NC1=NN(C(C)=O)C(C)(c2ccccc2)S1 (stereo not given) |  | inactive: 4.81% |
| O=C(NCc1ccccc1)Nc1ncnc2c1C(c1ccccc1)c1c(ccc3ccccc13)O2 (stereo not given) |  | inactive: -1.64% |
| CCCC1=CC2=C(CO1)C(=O)C(C)(O)C(OC(=O)c1c(C)cc(OC)cc1O)C2 (stereo not given) |  | inactive: 4.96% [at 28 µM] |
| CC1=C(C(=O)Nc2ccon2)C(c2nn(C)cc2Cl)N=C(Nc2nc3ccccc3o2)N1 (stereo not given) | inconclusive [inhibitor, single point] |  |
| CC(C)(C)OC(=O)N[C@@H](Cc1ccc(O[S+](=O)([O-])c2cccc3cnccc23)cc1)C(=O)N1CCN(Cc2ccccc2)CC1 | inconclusive [inhibitor, partial curve, poor fit] |  |
| Cc1ccc(NS(=O)(=O)c2cc3c(cc2C)NC(=O)CO3)cc1C | inconclusive [inhibitor, partial curve, poor fit] |  |
| CC(C)=C/C=C\[C@H](C)[C@H]1CC[C@]2(C)C[C@@H]3C(C)=CC(=O)C3/C(CO)=C\C[C@@H]12 (stereo not given in full) | inconclusive [inhibitor, partial curve, poor fit] |  |
| O=C(Cn1nc(-c2ccncc2)ccc1=O)NCCc1ccccc1 | inconclusive [inhibitor, full curve, poor fit] |  |
| Cc1ccc(NC(=O)CN2C(=O)N/C(=C\c3cccn3-c3ccc([S+](N)(=O)[O-])cc3)C2=O)cc1 |  | inactive: -0.0885% |
| O=c1[nH]c2ccc(C#CCN3CCC(Cc4ccccc4)CC3)cc2[nH]1 |  | inactive: 10.6% |
| O=C(O)COCCN1CCN([C@H](c2ccccc2)c2ccc(Cl)cc2)CC1 | inconclusive [inhibitor, single point] |  |
| Cc1ccc(NS(=O)(=O)c2ccc3c(ccn3C)c2)cc1C |  | inactive: -1.74% |
